# Measured values reported in PubChem BioAssay AID938 (National Center for Advancing Translational Sciences (NCATS), 2007).
# Screen size: about 73,000 compounds; about 1,800 (2.5%) were called active. This list was built around the results that the source calls inconclusive (neither active nor inactive); the mix of calls is not that of the screen. Calls follow the shape of the dose curve; as a rule, active = well fitted activation curve with a large enough effect; inconclusive = small, poorly fitted or top-dose-only effect; inactive = no such curve, though single readings can be large or run the other way. Potencies of inconclusive entries are left out as doubtful fits.
# Assay: qHTS Assay for Agonists of the Thyroid Stimulating Hormone Receptor: Activators of Intracellular cAMP Concentrations in Parental HEK 293; also: nearly all actives have a fitted effect of over 55% in size; as to activation: % of control where 0% means no effect
# Details: parental HEK293 CNG cAMP sensor, membrane potential fluorescence; activation: at 57.1 µM (top of the series) unless noted
# How it was run: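 Counterscreen for endogenous-receptor signalling: CNG-channel HEK 293 cells report cAMP rise by membrane depolarization. After 60 min dye equilibration with 100 uM RO 20-1724, compounds incubated 30 min before bottom-read fluorescence at 590 nm.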
# Potency is read from the fitted curve at half-maximal effect; tags tell the direction and shape of the fitted curve.
SMILES,Potency,activation
COc1ccccc1C(=O)N1CCN(c2cccc(Cl)c2)CC1,"inconclusive [activator, partial curve]",
Cn1nc(-c2ccc(Cl)cc2)c2cc(C(=O)NCCCN3CCCC3)sc21,inactive,
Fc1cccc(NCc2cn3ccccc3n2)c1,"inconclusive [activator, single point]",
COCCN(CCOC)c1nc(C)nc2c1nc(-c1ccccc1)n2CCN1CCOCC1,"inconclusive [activator, partial curve]",
O=C(CSc1nnc(Cc2ccccc2)n1-c1ccc(Cl)cc1)N1CCOCC1,"inconclusive [activator, single point]",
COc1ccc(C(=O)N2CCC3(CC2)CN(C(=O)Nc2cccc(C#N)c2)C3)cc1,inactive,
c1ccc2c(Oc3ccc4c(c3)OCO4)nncc2c1,inactive,
COc1nc2c(C)cccc2cc1-c1noc(-c2ccco2)n1,"inconclusive [activator, single point]",
Cc1ccc(N(C(C)C(=O)N2CCCCC2)S(C)(=O)=O)cc1C (stereo unspecified),"inconclusive [activator, single point]",
Cc1nnc(C)n1/N=C/c1cc(Br)ccc1O,inactive,
COc1ccc(OC)c(C(=O)c2coc3ccc(O)c(CN4CCOCC4)c23)c1,inactive,
COc1ccc(-c2nnc(SCC#CCO)o2)cc1OC,inactive,
CC(C)CO/N=C1/C[C@@H](O)[C@@H](O)[C@@H]2[C@@H]3C(=O)N(Cc4ccccc4)C(=O)[C@H]3CC[C@H]12,"inconclusive [activator, single point]",
Fc1ccc(C(c2nnnn2Cc2cccs2)N2CCN(C3CCCC3)CC2)cc1 (stereo unspecified),"inconclusive [activator, partial curve]",
Cc1c(NC(=O)OCCNC(=O)Nc2ccccc2)sc(=S)n1C,"inconclusive [activator, partial curve]",
Cc1cccc(-n2c(C)nc3c(cnn3-c3ccc(F)cc3)c2=O)c1,"inconclusive [activator, full curve, poor fit]",
O=C(Nc1nc2c(s1)CCCC2)c1ccc(Br)o1,,inactive: 11.1% [at 11.4 µM]
CO[C@H]1COC(=O)C/C=C\[C@@H](C)COC(=O)[C@@H](OCc2ccccc2)/C=C\[C@@H]1C,"inconclusive [activator, single point]",
CCC(C)(C)NC(=O)C(c1ccc(F)cc1)N(Cc1ccco1)C(=O)c1snc(C(N)=O)c1N (stereo unspecified),"inconclusive [activator, partial curve]",
CC1CCN(CC(O)COc2ccc(F)cc2)CC1 (stereo unspecified),"inconclusive [activator, full curve, poor fit]",
Cn1c(=O)[nH]c(=O)c2c1nc(Br)n2CCCCSc1nc2ccccc2o1,"inconclusive [activator, single point]",
CC1(C)CC2CC(C)(CN2C(=O)COC(=O)c2ccc(Cl)cc2N)C1 (stereo unspecified),active: 25.1 µM,
CCCCn1c(NC(=O)c2ccccc2Cl)c(C#N)c2nc3ccccc3nc21,inactive,
CCNc1ncc2nc(C)c(=O)n(-c3ccc(OC)cc3)c2n1,inactive,

SMILES,Potency,activation
O=C(CN1C(=O)CCC1=O)Nc1nc(-c2nc3ccccc3s2)cs1,"inconclusive [activator, partial curve]",
COc1ccc(C(=O)N2CCC3(CCCN(c4ncccn4)C3)CC2)cc1,inactive,
CC(=O)NCCNc1ncnc2ccc(-c3ccccc3C)cc12,"inconclusive [activator, single point]",
COCCn1nnnc1C(c1ccc(OC)cc1OC)N1CCN(c2ccccc2F)CC1 (stereo unspecified),active: 25.1 µM,
COc1ncc2ncc(=O)n(CCC#N)c2n1,inactive,
Cc1cccc(N(C)C(=O)c2cc3cc4ccc(C)cc4nc3o2)c1,active: 10 µM,
CCn1nc(CC(=O)Nc2nnc(CC(=O)N3CCCCC3)s2)c2ccccc2c1=O,"inconclusive [activator, single point]",
Clc1ccc(-c2ccc(-c3nn4c(-c5ccco5)nnc4s3)o2)cc1,"inconclusive [activator, single point]",
N#Cc1ccc(CSc2nc(-c3cccs3)c3c(c2C(=O)O)CCCC3)cc1,"inconclusive [activator, single point]",
Cc1ccc(S(=O)(=O)N2C(=S)SCC2(C)C)cc1,"inconclusive [activator, partial curve]",
CCOC(=O)C1=C(C)Nc2nnnn2C1c1ccc(OC)c(Br)c1 (stereo unspecified),"inconclusive [activator, single point]",
O=C(Nc1cc(C(F)(F)F)ccc1N1CCOCC1)C1Cc2ccccc2CN1C(=O)c1ccco1 (stereo unspecified),active: 1.26 µM,
CC1=C(C(=O)OCc2ccccc2)C(C2CCCCC2)NC(=O)N1CCCCCC(=O)O (stereo unspecified),"inconclusive [activator, single point]",
CCC(CC)C(=O)Nc1ccccc1NC(C)=O,"inconclusive [activator, single point]",
O=C(CSc1ccc(-c2ccccc2)nn1)N1CCOCC1,inactive,
Clc1ccccc1COc1ccccc1-c1nnco1,"inconclusive [activator, single point]",
COc1cc2c(cc1OC)C(c1ccccc1)N(C(=O)c1ccco1)CC2 (stereo unspecified),"inconclusive [activator, full curve]",
CCN1CCN(C(=O)c2nn(-c3ccc(OC)cc3)c(=O)c3c2c2ccccc2n3C)CC1,"inconclusive [activator, partial curve]",
CC(C)CN1CCCC2(CCN(C(=O)c3cnccn3)CC2)C1,inactive,
CSc1nc(N)c2ncn([C@@H]3O[C@@H](COP(=O)(O)OP(=O)(O)O)[C@@H](O)[C@H]3O)c2n1,inactive,
COc1cccc(NC(=O)N2CCN(c3cccc(C)c3C)CC2)c1,"inconclusive [activator, single point]",
O=C(CN1CCN(c2ccccn2)CC1)N(c1ccccc1)c1ccc2ccccc2c1,"inconclusive [activator, single point]",
CN1CCN(S(=O)(=O)c2ccc(-c3noc(C4CCN(S(C)(=O)=O)CC4)n3)cc2)CC1,"inconclusive [activator, single point]",
Cc1cnc(NC(=O)CSc2ncc(-c3ccccc3)n2Cc2ccco2)s1,"inconclusive [activator, partial curve]",

SMILES,Potency,activation
O=C(O)c1ccc([N+](=O)[O-])c(P(=O)(O)O)c1,,inactive: 2.78% [at 11.4 µM]
Cc1ccccc1OCC(=O)Nc1ccccc1N1CCCCC1,,inconclusive: 34.5% [activator]
Cc1ccc(C)n1-n1c(C)nc2sc(-c3ccccc3)cc2c1=O,active: 3.16 µM,
CCOC(=O)C1CCCCN1Cc1cc(Cl)ccc1O (stereo unspecified),"inconclusive [activator, partial curve]",
CCOC(=O)C1CCCN(c2ncnc3c2[nH]c2cccc(OC)c23)C1 (stereo unspecified),inactive,
CC(C)c1ccc2c(c1)c(SC(C)(C)C)c(CC(C)(C)C(=O)O)n2Cc1ccc(Cl)cc1,"inconclusive [activator, single point]",
COC(=O)[C@@H]1C[C@H]1[C@@H](NC(=O)c1ccccc1)c1ccccc1,active: 25.1 µM,
O=C(NC1CCN(Cc2ccccc2)CC1)c1ccc(I)cc1,"inconclusive [activator, partial curve]",
CC1CCCCN1C(=O)CSc1nc2ccsc2c(=O)n1Cc1ccccn1 (stereo unspecified),inactive,
CN1CCN(S(=O)(=O)c2ccc(NC(=O)c3ccco3)cc2)CC1,"inconclusive [activator, single point]",
CCc1nnc(NC(=O)c2cccc(S(=O)(=O)N3CCN(c4ccccc4)CC3)c2)s1,inactive,
Cc1cc(C)n2nc(NCc3cccc(Br)c3)nc2n1,inactive,
Cc1onc(-c2c(F)cccc2Cl)c1C(=O)Nc1cccc2nsnc12,"inconclusive [activator, partial curve]",
COc1ccc(Cn2c3nc4ccccc4nc3c3c(=O)n(Cc4ccco4)cnc32)cc1,inactive,
COc1ccc2[nH]cc(CCNc3ncncc3-c3ccccc3CN(C)C)c2c1,inactive,
COc1ccccc1OCCCn1c(=O)sc2ccccc21,"inconclusive [activator, partial curve]",
CN(Cc1ccco1)c1ncnc2ccc(-c3ccccc3C(F)(F)F)cc12,"inconclusive [activator, partial curve]",
FC(F)(F)c1cccc(-c2nc3nc(Cl)c(Cl)nc3[nH]2)c1,"inconclusive [activator, full curve]",
CCOC(=O)C1CCN(c2cc(=O)n(-c3ccccc3Cl)c(=O)[nH]2)CC1,"inconclusive [activator, single point]",
O=C1NC2(CCCCC2)N=C1c1ccccc1,"inconclusive [activator, single point]",
CC(C)=NOCc1cccc(-c2cc(-c3ccccc3)no2)c1,"inconclusive [activator, single point]",
CCN1CCCC1CNC(=O)Cn1cccc1C(=O)c1ccccc1C (stereo unspecified),"inconclusive [activator, single point]",
CC1CCN(S(=O)(=O)c2ccc3c(c2)oc(=O)n3CC(=O)NCc2ccc3c(c2)OCO3)CC1,"inconclusive [activator, single point]",
